This note sets out measurements from the supplement of paper PMC12067093, “Discovery and optimisation of a covalent ligand for TRIM25 and its application to targeted protein ubiquitination” (Chemical Science, 2025).

About 21,000 targets were measured; listed, in parts, are those with the largest changes and a random draw of the rest.

Compound in the assay: Cc1cc(ccc1-c1ccccc1)C(=O)N1CCCN(CC1)C(=O)CCl [compound 10]
Description: probe-labelled cysteine peptide fold change vs DMSO (competition) (log2 fold change); higher = less target engagement (more negative = stronger competition). Conditions: THP-1, incubation time: 4 h.
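Note: competitive profiling in live THP-1 cells: cysteine peptides tagged with an iodoacetamide desthiobiotin (IA-DTB) probe, intensity after compound treatment relative to DMSO-treated cells.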

Chain of UniProt Q15291 (Q15291 whole entry, looked up): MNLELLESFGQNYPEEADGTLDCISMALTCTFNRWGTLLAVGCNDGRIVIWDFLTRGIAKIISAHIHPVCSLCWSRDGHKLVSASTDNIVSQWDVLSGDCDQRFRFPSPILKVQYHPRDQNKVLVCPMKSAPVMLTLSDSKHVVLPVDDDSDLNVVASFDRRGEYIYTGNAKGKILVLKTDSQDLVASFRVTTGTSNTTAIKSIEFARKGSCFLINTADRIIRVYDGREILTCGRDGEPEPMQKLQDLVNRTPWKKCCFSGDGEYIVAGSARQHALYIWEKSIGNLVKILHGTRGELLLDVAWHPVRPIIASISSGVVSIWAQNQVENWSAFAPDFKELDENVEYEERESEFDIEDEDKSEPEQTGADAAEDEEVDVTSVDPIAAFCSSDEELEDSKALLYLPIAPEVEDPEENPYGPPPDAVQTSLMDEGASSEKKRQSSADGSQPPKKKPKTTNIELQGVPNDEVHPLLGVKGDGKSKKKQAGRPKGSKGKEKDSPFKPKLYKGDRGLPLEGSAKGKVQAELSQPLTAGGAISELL
Chain of UniProt Q13129 (Q13129 whole entry, looked up): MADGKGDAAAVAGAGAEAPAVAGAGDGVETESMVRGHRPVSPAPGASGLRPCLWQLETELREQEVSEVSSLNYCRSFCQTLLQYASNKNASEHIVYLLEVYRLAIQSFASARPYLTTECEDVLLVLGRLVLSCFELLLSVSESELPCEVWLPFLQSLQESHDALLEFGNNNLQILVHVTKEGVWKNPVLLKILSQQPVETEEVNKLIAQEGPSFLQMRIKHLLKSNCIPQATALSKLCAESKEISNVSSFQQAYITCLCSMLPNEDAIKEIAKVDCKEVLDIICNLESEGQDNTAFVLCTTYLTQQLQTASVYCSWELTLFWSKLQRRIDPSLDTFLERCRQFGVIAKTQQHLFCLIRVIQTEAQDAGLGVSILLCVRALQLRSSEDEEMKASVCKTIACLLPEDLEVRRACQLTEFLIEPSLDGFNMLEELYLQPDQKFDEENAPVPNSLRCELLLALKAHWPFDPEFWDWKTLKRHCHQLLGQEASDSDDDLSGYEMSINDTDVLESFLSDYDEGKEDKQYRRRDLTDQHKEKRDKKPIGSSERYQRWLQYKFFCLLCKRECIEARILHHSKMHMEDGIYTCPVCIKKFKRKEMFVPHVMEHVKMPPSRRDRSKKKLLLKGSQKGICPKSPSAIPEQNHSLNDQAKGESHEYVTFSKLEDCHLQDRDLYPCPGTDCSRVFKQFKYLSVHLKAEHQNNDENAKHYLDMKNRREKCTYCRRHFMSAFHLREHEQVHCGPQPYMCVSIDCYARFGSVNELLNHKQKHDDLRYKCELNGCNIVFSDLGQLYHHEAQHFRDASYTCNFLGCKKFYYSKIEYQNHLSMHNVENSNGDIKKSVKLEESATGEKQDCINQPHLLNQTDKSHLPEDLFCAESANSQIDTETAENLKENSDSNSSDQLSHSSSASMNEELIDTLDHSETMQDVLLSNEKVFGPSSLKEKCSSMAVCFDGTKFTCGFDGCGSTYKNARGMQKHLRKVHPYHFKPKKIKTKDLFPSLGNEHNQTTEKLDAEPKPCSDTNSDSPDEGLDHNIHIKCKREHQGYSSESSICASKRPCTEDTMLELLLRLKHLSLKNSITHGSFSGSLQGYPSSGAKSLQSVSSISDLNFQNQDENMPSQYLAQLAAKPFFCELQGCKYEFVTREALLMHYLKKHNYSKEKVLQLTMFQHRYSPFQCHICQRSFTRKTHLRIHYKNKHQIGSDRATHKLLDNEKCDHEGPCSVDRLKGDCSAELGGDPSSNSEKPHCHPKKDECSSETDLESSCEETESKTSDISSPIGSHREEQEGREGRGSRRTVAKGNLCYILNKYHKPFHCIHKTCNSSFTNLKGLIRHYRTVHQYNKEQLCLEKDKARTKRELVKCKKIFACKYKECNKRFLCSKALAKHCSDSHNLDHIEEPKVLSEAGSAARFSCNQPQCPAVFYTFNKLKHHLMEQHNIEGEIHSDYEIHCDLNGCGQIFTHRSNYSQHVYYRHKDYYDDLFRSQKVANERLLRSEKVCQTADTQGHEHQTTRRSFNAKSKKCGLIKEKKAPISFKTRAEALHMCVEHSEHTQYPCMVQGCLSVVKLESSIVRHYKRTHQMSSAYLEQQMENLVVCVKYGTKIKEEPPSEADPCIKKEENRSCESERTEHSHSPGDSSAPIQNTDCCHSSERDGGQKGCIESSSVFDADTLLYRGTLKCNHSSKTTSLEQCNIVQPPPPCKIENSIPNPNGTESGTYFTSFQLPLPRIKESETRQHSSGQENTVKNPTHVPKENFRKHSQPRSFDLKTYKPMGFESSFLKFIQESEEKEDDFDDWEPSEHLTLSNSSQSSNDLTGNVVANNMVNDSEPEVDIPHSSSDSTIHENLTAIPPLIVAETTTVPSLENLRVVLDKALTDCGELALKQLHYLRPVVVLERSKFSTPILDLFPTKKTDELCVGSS
Chain of UniProt P62195 (P62195 whole entry, looked up): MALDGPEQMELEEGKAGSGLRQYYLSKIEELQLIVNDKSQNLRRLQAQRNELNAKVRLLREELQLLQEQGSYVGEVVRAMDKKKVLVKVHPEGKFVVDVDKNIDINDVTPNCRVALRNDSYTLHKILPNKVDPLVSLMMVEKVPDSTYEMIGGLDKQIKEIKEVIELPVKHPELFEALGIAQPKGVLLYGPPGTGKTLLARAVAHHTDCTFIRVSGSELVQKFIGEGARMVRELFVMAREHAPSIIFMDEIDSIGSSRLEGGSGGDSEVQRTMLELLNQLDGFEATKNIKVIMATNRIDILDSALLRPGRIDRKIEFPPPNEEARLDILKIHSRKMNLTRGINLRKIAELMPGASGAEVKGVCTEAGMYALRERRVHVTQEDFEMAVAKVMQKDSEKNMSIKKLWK
Chain of UniProt Q9Y3P9 (Q9Y3P9 whole entry, looked up): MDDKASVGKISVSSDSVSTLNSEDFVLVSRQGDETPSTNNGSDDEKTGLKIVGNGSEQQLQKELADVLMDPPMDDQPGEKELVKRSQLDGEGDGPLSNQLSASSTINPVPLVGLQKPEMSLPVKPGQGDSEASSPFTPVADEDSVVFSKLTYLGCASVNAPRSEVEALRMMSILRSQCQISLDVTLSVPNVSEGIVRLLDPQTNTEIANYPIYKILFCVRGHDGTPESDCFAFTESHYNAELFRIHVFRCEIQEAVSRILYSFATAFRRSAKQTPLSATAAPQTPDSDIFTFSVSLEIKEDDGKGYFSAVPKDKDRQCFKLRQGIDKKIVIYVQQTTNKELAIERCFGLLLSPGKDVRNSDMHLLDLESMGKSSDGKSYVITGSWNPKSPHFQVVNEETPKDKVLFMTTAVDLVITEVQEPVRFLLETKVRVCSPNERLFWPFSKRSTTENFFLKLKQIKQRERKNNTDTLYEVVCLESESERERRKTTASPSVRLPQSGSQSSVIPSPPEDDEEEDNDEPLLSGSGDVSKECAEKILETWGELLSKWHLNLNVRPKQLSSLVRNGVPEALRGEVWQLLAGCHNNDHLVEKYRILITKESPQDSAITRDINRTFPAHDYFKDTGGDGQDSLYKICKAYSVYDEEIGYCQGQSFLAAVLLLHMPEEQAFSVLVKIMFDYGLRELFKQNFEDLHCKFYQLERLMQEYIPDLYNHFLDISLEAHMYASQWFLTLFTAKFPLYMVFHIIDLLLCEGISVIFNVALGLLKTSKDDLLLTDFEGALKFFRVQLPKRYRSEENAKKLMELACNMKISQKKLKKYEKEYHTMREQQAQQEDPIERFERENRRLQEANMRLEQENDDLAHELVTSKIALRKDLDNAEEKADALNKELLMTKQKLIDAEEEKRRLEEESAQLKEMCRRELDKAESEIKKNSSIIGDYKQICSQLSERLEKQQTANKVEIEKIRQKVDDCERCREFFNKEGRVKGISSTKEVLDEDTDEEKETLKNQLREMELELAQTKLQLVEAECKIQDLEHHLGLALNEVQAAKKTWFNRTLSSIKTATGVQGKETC
Chain of UniProt P25789 (P25789 whole entry, looked up): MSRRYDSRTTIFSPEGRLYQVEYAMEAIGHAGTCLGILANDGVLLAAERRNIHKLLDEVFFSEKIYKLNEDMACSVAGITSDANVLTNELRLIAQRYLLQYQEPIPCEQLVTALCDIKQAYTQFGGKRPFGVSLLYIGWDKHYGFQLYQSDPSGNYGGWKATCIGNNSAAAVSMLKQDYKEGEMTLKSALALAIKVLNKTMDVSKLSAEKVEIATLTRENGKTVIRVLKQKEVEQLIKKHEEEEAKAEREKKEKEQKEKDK
Chain of UniProt P35354 (P35354 whole entry): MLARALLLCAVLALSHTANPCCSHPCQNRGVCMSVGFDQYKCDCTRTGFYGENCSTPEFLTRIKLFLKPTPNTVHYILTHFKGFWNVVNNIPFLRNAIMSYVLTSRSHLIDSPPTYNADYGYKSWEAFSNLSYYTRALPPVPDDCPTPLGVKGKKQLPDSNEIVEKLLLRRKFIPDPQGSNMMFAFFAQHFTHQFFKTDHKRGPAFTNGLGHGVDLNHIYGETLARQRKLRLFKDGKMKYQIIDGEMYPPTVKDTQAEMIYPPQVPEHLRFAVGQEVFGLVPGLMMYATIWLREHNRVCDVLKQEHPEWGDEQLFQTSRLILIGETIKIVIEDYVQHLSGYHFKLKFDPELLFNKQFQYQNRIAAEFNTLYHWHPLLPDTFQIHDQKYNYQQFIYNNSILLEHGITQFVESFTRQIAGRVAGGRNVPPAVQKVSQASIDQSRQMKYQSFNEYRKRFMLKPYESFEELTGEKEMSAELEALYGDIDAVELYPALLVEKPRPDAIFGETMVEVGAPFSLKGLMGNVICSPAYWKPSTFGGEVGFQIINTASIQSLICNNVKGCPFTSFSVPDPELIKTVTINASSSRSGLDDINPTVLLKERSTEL
Chain of UniProt P28062 (P28062 whole entry, looked up): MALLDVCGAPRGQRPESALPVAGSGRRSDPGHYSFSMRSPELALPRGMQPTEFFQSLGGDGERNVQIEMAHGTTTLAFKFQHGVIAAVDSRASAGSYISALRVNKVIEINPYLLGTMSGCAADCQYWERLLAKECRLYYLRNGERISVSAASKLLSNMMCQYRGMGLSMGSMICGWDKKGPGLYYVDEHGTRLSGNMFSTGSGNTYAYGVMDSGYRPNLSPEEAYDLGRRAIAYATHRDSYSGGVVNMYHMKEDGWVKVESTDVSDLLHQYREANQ

“PREX2_Q70Z35_341_WFVCMAK (UniProt Q70Z35)”: the “probe-labelled cysteine peptide fold change” value is -0.115 (10 µM) and 0.176 (50 µM).
With “RARS2_Q5T160_489_LHSLEETFGCGYLNDFNTACLQEPQSVSILQHLLR (UniProt Q5T160)”, the “probe-labelled cysteine peptide fold change” value was 0.336 (10 µM) and 1.34 (50 µM).
Taken in the same sequence, the figures for “RABGAP1_Q9Y3P9_1026_LQLVEAECK (UniProt Q9Y3P9)” were -0.0579 and -0.0694.
“PRPF40A_O75400_580_EDALICFEEHIR (UniProt O75400)”: the “probe-labelled cysteine peptide fold change” value (10 µM) came out at 0.225 and the “probe-labelled cysteine peptide fold change” value (50 µM) was 0.566.
For “RASA2_Q15283_436_SCEIDPIK (UniProt Q15283)” the same measures were -0.276 and -0.0813.
For the target “PSMD13_Q9UNM6_276_KIQLLCLMEMTFTRPANHR (UniProt Q9UNM6)”, the “probe-labelled cysteine peptide fold change” value (10 µM) was -0.226 and the “probe-labelled cysteine peptide fold change” value (50 µM) is 0.0422.
For “RAB12_Q6IQ22_159_LDCETDREITR (UniProt Q6IQ22)” the same measures were 0.0479 and 0.266.
Consider “RFTN1_Q14699_211_PGTGDVCSAPAGR (UniProt Q14699)”, for which the “probe-labelled cysteine peptide fold change” value reads like this: (10 µM) -0.267; (50 µM) -0.25.
Turning to RLF_Q13129_1364_KIFACK (UniProt Q13129), the “probe-labelled cysteine peptide fold change” value was -0.197 (10 µM) and -1.12 (50 µM).
For the target “RAP1GAP2_Q684P5_584_CDSTSSTPK (UniProt Q684P5)”, the “probe-labelled cysteine peptide fold change” value is -0.117 (10 µM) and -0.552 (50 µM).
Taken in the same sequence, the figures for “PSTPIP1_O43586_213_TTCEAFQLQEFDRLTILR (UniProt O43586)” were -0.138 and -0.28.
Taken in the same sequence, the figures for “PRXL2A_Q9BRX8_85_RPGCFLCR (UniProt Q9BRX8)” were -2.55 and -2.74.
For “PRKDC_P78527_123_CKIPALDLLIK (UniProt P78527)” the same measures were -1.08 and 0.0331.
As for “PRR14L_Q5THK1_1730_SSSSDCTTESSR (UniProt Q5THK1)”, the “probe-labelled cysteine peptide fold change” value (10 µM) is -0.269 and the “probe-labelled cysteine peptide fold change” value (50 µM) was -1.09.
For “RAC2_P15153_105_HHCPSTPIILVGTK (UniProt P15153)” the same measures were 0.12 and -0.0654.
Taken in the same sequence, the figures for “QTRT2_Q9H974_324_KIETTGCNQEITSFEINLK (UniProt Q9H974)” were -0.295 and -0.596.
For “PSMB8_P28062_124_VIEINPYLLGTMSGCAADCQYWER (UniProt P28062)” the same measures were -0.321 and -1.14.
Regarding “PRKDC_P78527_1791_GSCVTQVGLLESVYEMFRK (UniProt P78527)”, the “probe-labelled cysteine peptide fold change” value runs as follows: (10 µM) -0.126; (50 µM) -0.358.
For “PSTPIP1_O43586_259_LTLEGCSIDADIDSFIQAK (UniProt O43586)” the same measures were -0.0615 and 0.115.
Taken in the same sequence, the figures for “RHBDF2_Q6PJF5_181_DLELPSQEAPSFQGTESPKPCK (UniProt Q6PJF5)” were -0.549 and -1.52.
For “PSMA4_P25789_115_YLLQYQEPIPCEQLVTALCDIK (UniProt P25789)” the same measures were 0.243 and 0.398.
As for “RASGRP2_Q7LDG7_186_ILFQDYHSFVTHGCTVDNPVLER (UniProt Q7LDG7)”, the “probe-labelled cysteine peptide fold change” value by setting is: (10 µM) -0.233; (50 µM) -0.579.
For “PSMD2_Q13200_779_GTLTLCPYHSDR (UniProt Q13200)” the same measures were 0.0817 and 0.00322.
As to “RBBP5_Q15291_73_IISAHIHPVCSLCWSR (UniProt Q15291)”, the “probe-labelled cysteine peptide fold change” value runs as follows: (10 µM) 0.147; (50 µM) 0.294.
For “PSMC5_P62195_363_GVCTEAGMYALR (UniProt P62195)” the same measures were 0.208 and 0.0769.
As for “PRKDC_P78527_1904_INQVFHGSCITEGNELTK (UniProt P78527)”, the “probe-labelled cysteine peptide fold change” value (10 µM) was -0.0536 and the “probe-labelled cysteine peptide fold change” value (50 µM) was -0.375.
For “PTGS2_P35354_299_EHNRVCDVLK (UniProt P35354)” the same measures were -0.078 and -0.759.
